In the antibiotic and cytotoxicity screens of Wong et al. (2023) one finds cytotoxicity call and growth inhibition call data, which are given here for 25 compounds.

For one test, the system named is HSkMC. The test is described as follows: cytotoxicity call (relative viability < 0.9). As to conditions: 10 µM.
In the next test the test system is HepG2. The test is described as follows: cytotoxicity call (relative viability < 0.9). Conditions: 10 µM.
The next test relates to S. aureus RN4220. Kind of test: growth inhibition call (relative growth <= 0.2). As to conditions: 50 µM.

Each structure is given as a SMILES string. This is one part of the list.

Consider `Cc1ccc(S[C@]2(C(=O)NCC(F)(F)F)CC(=O)N(Cc3cc(C(F)(F)F)cc(C(F)(F)F)c3)[C@@H]2c2ccc(CO)cc2)cc1`, for which the cytotoxicity call in the test with HSkMC and in the test on HepG2 was “inactive” each time. The growth inhibition call with S. aureus RN4220 was “inactive”.

In the case of `COCC#Cc1ccc2c(c1)O[C@@H](CN(C)Cc1ccccc1F)[C@H](C)CN([C@@H](C)CO)S2(=O)=O`, the cytotoxicity call with HSkMC and in the test with HepG2 was “inactive” each time. In the test with S. aureus RN4220, the growth inhibition call was “inactive”.

As to `C[C@@H]1CN([C@@H](C)CO)C(=O)Cc2cc(NS(=O)(=O)c3ccccc3)ccc2O[C@@H]1CN(C)S(C)(=O)=O`, the cytotoxicity call with HSkMC and in the test with HepG2 was “inactive” in each case. Also, the growth inhibition call in the test on S. aureus RN4220 is “inactive”.

For the compound `O=C(CO)C(O)C(O)C(O)CO` (stereo not given), the cytotoxicity call in the test with HSkMC and in the test on HepG2 was “inactive” in each case. The growth inhibition call in the test with S. aureus RN4220 was “inactive”.

As to `Cc1ccc(S(=O)(=O)Nc2ccc3c(c2)C(=O)N([C@@H](C)CO)C[C@@H](C)[C@H](CN(C)S(=O)(=O)c2cccs2)O3)cc1`, the cytotoxicity call in the test on HSkMC and with HepG2 was “inactive” each time. In addition, the growth inhibition call in the test on S. aureus RN4220 was “inactive”.

Take `C[C@@H]1CN([C@@H](C)CO)C(=O)c2cccc(NC(=O)Nc3ccc(C(F)(F)F)cc3)c2O[C@H]1CN(C)Cc1ccc(C(=O)Nc2ccccc2N)cc1`: in the test with HSkMC, the cytotoxicity call is “inactive”. Further, the cytotoxicity call in the test with HepG2 was “active”. Also, in the test with S. aureus RN4220, the growth inhibition call is “inactive”.

As to `COc1ccc(S(=O)(=O)N(C)C[C@@H]2OCCCC[C@H](C)Oc3ccc(NC(=O)c4ccccc4)cc3C(=O)N([C@@H](C)CO)C[C@H]2C)cc1`, the cytotoxicity call in the test with HSkMC is “inactive”. Besides, in the test on HepG2, the cytotoxicity call is “active”. Moreover, the growth inhibition call in the test on S. aureus RN4220 was “inactive”.

As for `C[C@H](CO)N1C[C@H](C)[C@H](CN(C)S(=O)(=O)c2ccc(F)cc2)Oc2ncc(C#Cc3ccccc3)cc2C1=O`, the cytotoxicity call with HSkMC and in the test on HepG2 was “inactive” in each case. For the same compound, the growth inhibition call in the test with S. aureus RN4220 was “inactive”.

Turning to `O=C(O)C[C@H]1CSc2nccc(=O)n21`, the cytotoxicity call with HSkMC and with HepG2 was “inactive” throughout. Moreover, in the test on S. aureus RN4220, the growth inhibition call was “inactive”.

Turning to `C[C@H](CO)N1C[C@H](C)[C@H](CN(C)S(=O)(=O)c2cccs2)Oc2ccc(NC(=O)C3CC3)cc2C1=O`, the cytotoxicity call in the test on HSkMC and in the test with HepG2 was “inactive” each time. For the same compound, the growth inhibition call in the test with S. aureus RN4220 was “inactive”.

On to `CO[C@H]1CN(C)C(=O)c2cc(NS(=O)(=O)CC(F)(F)F)ccc2OC[C@H](C)N(Cc2cccnc2)C[C@@H]1C`, for which the cytotoxicity call in the test with HSkMC and in the test on HepG2 was “inactive” each time. Moreover, in the test on S. aureus RN4220, the growth inhibition call was “inactive”.

Regarding `c1ccc2c(-c3ccncc3)c[nH]c2c1`, the cytotoxicity call in the test with HSkMC and in the test on HepG2 was “inactive” each time. Also, in the test with S. aureus RN4220, the growth inhibition call is “inactive”.

As for `CC(C)NC(=O)Nc1ccc2c(c1)C(=O)N([C@@H](C)CO)C[C@@H](C)[C@H](CN(C)C(=O)Nc1cccc3ccccc13)OCCCC[C@H](C)O2`, the cytotoxicity call in the test with HSkMC and in the test on HepG2 was “inactive” in each case. Also, in the test with S. aureus RN4220, the growth inhibition call is “inactive”.

As for `C[C@@H]1CN([C@H](C)CO)C(=O)c2cc(NS(=O)(=O)c3ccccc3)ccc2O[C@@H](C)CCCCO[C@H]1CN(C)Cc1ccccc1`, the cytotoxicity call with HSkMC and with HepG2 was “inactive” throughout. In addition, in the test with S. aureus RN4220, the growth inhibition call is “inactive”.

Regarding `CC(C)NC(=O)Nc1ccc2c(c1)C(=O)N([C@@H](C)CO)C[C@@H](C)[C@H](CN(C)C(=O)C1CCCCC1)OCCCC[C@H](C)O2`, the cytotoxicity call with HSkMC and with HepG2 was “inactive” each time. The growth inhibition call in the test on S. aureus RN4220 was “inactive”.

`Cc1ccc(S(=O)(=O)N[C@H]2C=C[C@@H](CC(=O)NCCN3CCCCC3)O[C@@H]2CO)cc1`: the cytotoxicity call with HSkMC and in the test on HepG2 was “inactive” each time. Also, the growth inhibition call in the test on S. aureus RN4220 is “inactive”.

`C[C@H]1CN([C@@H](C)CO)C(=O)Cc2cc(NS(C)(=O)=O)ccc2O[C@@H]1CN(C)Cc1ccc(C(=O)O)cc1`: the cytotoxicity call with HSkMC and in the test on HepG2 was “inactive” each time. In addition, in the test with S. aureus RN4220, the growth inhibition call was “inactive”.

As for `C[C@@H]1CN([C@H](C)CO)S(=O)(=O)c2ccc(C#C[C@@H](C)O)cc2O[C@@H]1CN(C)C(=O)c1ccncc1`, the cytotoxicity call in the test with HSkMC and in the test on HepG2 was “inactive” throughout. The growth inhibition call in the test on S. aureus RN4220 is “inactive”.

For the compound `COc1ccc(NC(=O)Nc2ccc3c(c2)C(=O)N([C@H](C)CO)C[C@H](C)[C@H](CN(C)C(=O)Nc2cccc4ccccc24)OCCCC[C@@H](C)O3)cc1`, the cytotoxicity call with HSkMC and in the test on HepG2 was “inactive” throughout. Also, the growth inhibition call in the test with S. aureus RN4220 is “inactive”.

Regarding `C[C@@H]1CN([C@H](C)CO)S(=O)(=O)c2ccc(C#Cc3ccc(F)cc3)cc2O[C@@H]1CN(C)C(=O)CN(C)C`, the cytotoxicity call with HSkMC and with HepG2 was “inactive” each time. Further, the growth inhibition call in the test with S. aureus RN4220 was “inactive”.

On to `C[C@H]1CN([C@@H](C)CO)C(=O)c2cc(NC(=O)C3CCCCC3)ccc2O[C@H]1CN(C)Cc1ccc(Cl)c(Cl)c1`, for which the cytotoxicity call in the test on HSkMC and in the test with HepG2 was “inactive” in each case. Moreover, the growth inhibition call with S. aureus RN4220 was “inactive”.

Regarding `C[C@@H]1CN([C@H](C)CO)C(=O)c2cc(NC(=O)CCCN(C)C)ccc2O[C@@H]1CN(C)S(=O)(=O)c1cn(C)cn1`, the cytotoxicity call with HSkMC and in the test on HepG2 was “inactive” each time. Further, the growth inhibition call in the test with S. aureus RN4220 was “inactive”.

For `COc1ccc(NC(=O)N(C)C[C@@H]2Oc3c(NC(=O)c4cc(C)nn4C)cccc3C(=O)N([C@H](C)CO)C[C@H]2C)cc1`, the cytotoxicity call in the test with HSkMC and in the test on HepG2 was “inactive” each time. For the same compound, in the test with S. aureus RN4220, the growth inhibition call is “inactive”.

Regarding `C=CC[C@H](CC(=O)N(CCO)Cc1ccccc1)C(=O)N1CCC[C@@H]1COC(=O)[C@H](CC=C)NC(=O)OCC1c2ccccc2-c2ccccc21`, the cytotoxicity call in the test with HSkMC and in the test with HepG2 was “inactive” throughout. Moreover, in the test on S. aureus RN4220, the growth inhibition call is “inactive”.

Turning to `CC(C)NC(=O)Nc1cccc2c1O[C@@H](CN(C)C(=O)NC1CCCCC1)[C@@H](C)CN([C@H](C)CO)C2=O`, the cytotoxicity call in the test on HSkMC (human skeletal muscle cells) and in the test on HepG2 was “inactive” throughout. In addition, the growth inhibition call in the test on S. aureus RN4220 was “inactive”.
